Measured values published in the supplement of paper PMC8728848.
The other results are listed elsewhere or left out.

Legend:
Experiment in all cases: glycan array binding signal (z-score within array); higher = stronger binding
Settings in all cases: glycan notation: IUPAC condensed, linker removed
[1] = biological target: Gal(b1-4)GlcNAc(b1-6)GalNAc
In short: (§1)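 From the Consortium for Functional Glycomics database, 3228 arrays were curated, keeping only those whose protein sequence was available. Binding is given as a within-array Z-score averaged across arrays sharing a protein sequence and across linkers. Negative Z-scores can be read as non-binding.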

[2] = biological target: Gal(b1-4)GlcNAc(b1-6)[Gal(b1-3)]GalNAc
In short: as §1

[3] = biological target: Gal(b1-4)GlcNAc(b1-6)[Gal(b1-4)GlcNAc(b1-3)]GalNAc
In short: as §1

Gal(b1-4)GlcNAc6P = biological target: Gal(b1-4)GlcNAc6P
In short: as §1

Gal(b1-6)Gal = biological target: Gal(b1-6)Gal
In short: as §1

Gal(b1-6)GalNAc = biological target: Gal(b1-6)GalNAc
In short: as §1

Gal3S(b1-3)GalNAc = biological target: Gal3S(b1-3)GalNAc
In short: as §1

[4] = biological target: Gal3S(b1-3)GalNAc(b1-4)Gal3S(b1-4)Glc
In short: as §1

Gal3S(b1-3)GlcNAc = biological target: Gal3S(b1-3)GlcNAc
In short: as §1

[5] = biological target: Gal3S(b1-3)[Fuc(a1-4)]GlcNAc
In short: as §1

[6] = biological target: Gal3S(b1-3)[Fuc(a1-4)]GlcNAc(b1-3)Gal(b1-4)Glc
In short: as §1

Gal3S(b1-4)Glc = biological target: Gal3S(b1-4)Glc
In short: as §1

Gal3S(b1-4)Glc6S = biological target: Gal3S(b1-4)Glc6S
In short: as §1

Gal3S(b1-4)GlcNAc = biological target: Gal3S(b1-4)GlcNAc
In short: as §1

[7] = biological target: Gal3S(b1-4)GlcNAc(b1-3)Gal
In short: as §1

Gal3S(b1-4)GlcNAc6S = biological target: Gal3S(b1-4)GlcNAc6S
In short: as §1

[8] = biological target: Gal3S(b1-4)[Fuc(a1-3)]Glc
In short: as §1

[9] = biological target: Gal3S(b1-4)[Fuc(a1-3)]Glc6S
In short: as §1

[10] = biological target: Gal3S(b1-4)[Fuc(a1-3)]GlcNAc
In short: as §1

[11] = biological target: Gal3S(b1-4)[Fuc(a1-3)]GlcNAc6S
In short: as §1

Gal3S4S(b1-4)GlcNAc = biological target: Gal3S4S(b1-4)GlcNAc
In short: as §1

Gal3S6S(b1-4)GlcNAc = biological target: Gal3S6S(b1-4)GlcNAc
In short: as §1

Gal3S6S(b1-4)GlcNAc6S = biological target: Gal3S6S(b1-4)GlcNAc6S
In short: as §1

Gal4S(b1-4)GlcNAc = biological target: Gal4S(b1-4)GlcNAc
In short: as §1

Gal4S6S(b1-4)GlcNAc = biological target: Gal4S6S(b1-4)GlcNAc
In short: as §1

Gal6P(b1-4)GlcNAc = biological target: Gal6P(b1-4)GlcNAc
In short: as §1

Gal6S(b1-3)GlcNAc = biological target: Gal6S(b1-3)GlcNAc
In short: as §1

Gal6S(b1-3)GlcNAc6S = biological target: Gal6S(b1-3)GlcNAc6S
In short: as §1

[12] = biological target: Gal6S(b1-3)[Fuc(a1-4)]GlcNAc(b1-3)Gal(b1-4)Glc
In short: as §1

Gal6S(b1-4)Glc = biological target: Gal6S(b1-4)Glc
In short: as §1

Gal6S(b1-4)Glc6S = biological target: Gal6S(b1-4)Glc6S
In short: as §1

Gal6S(b1-4)GlcNAc = biological target: Gal6S(b1-4)GlcNAc
In short: as §1

Gal6S(b1-4)GlcNAc6S = biological target: Gal6S(b1-4)GlcNAc6S
In short: as §1

GalNAc(a1-3)Gal = biological target: GalNAc(a1-3)Gal
In short: as §1

GalNAc(a1-3)Gal(b1-4)Glc = biological target: GalNAc(a1-3)Gal(b1-4)Glc
In short: as §1

GalNAc(a1-3)GalNAc = biological target: GalNAc(a1-3)GalNAc
In short: as §1

[13] = biological target: GalNAc(a1-3)GalNAc(a1-3)Gal(a1-4)Gal(b1-4)GlcNAc
In short: as §1

[14] = biological target: GalNAc(a1-3)GalNAc(b1-3)Gal(a1-4)Gal(b1-4)Glc
In short: as §1

[15] = biological target: GalNAc(a1-3)GalNAc(b1-3)Gal(a1-4)Gal(b1-4)GlcNAc
In short: as §1

GalNAc(b1-3)Gal = biological target: GalNAc(b1-3)Gal
In short: as §1

[16] = biological target: GalNAc(b1-3)Gal(a1-4)Gal(b1-4)GlcNAc
In short: as §1

[17] = biological target: GalNAc(b1-3)Gal(a1-4)Gal(b1-4)GlcNAc(b1-3)Gal(b1-4)Glc
In short: as §1

[18] = biological target: GalNAc(b1-3)Gal(a1-6)Gal(b1-4)Glc
In short: as §1

GalNAc(b1-3)GalNAc = biological target: GalNAc(b1-3)GalNAc
In short: as §1

GalNAc(b1-3)GlcNAc = biological target: GalNAc(b1-3)GlcNAc
In short: as §1

B1: CLEC5A (Homo sapiens), Q9NY25 (protein)
chain: MNWHMIISGLIVVVLKVVGMTLFLLYFPQIFNKSNDGFTTTRSYGTVSQIFGSSSPSPNGFITTRSYGTVCPKDWEFYQARCFFLSTSESSWNESRDFCKGKGSTLAIVNTPEKLKFLQDITDAEKYFIGLIYHREEKRWRWINNSVFNGNVTNQNQNFNCATIGLTKTFDAASCDISYRRICEKNAK
[1]
  glycan array binding signal (z-score): 0.525
[2]
  glycan array binding signal (z-score): -0.196
[3]
  glycan array binding signal (z-score): -0.112
Gal(b1-4)GlcNAc6P
  glycan array binding signal (z-score): -0.162
Gal(b1-6)Gal
  glycan array binding signal (z-score): -0.219
Gal(b1-6)GalNAc
  glycan array binding signal (z-score): -0.32
Gal3S(b1-3)GalNAc
  glycan array binding signal (z-score): 0.133
[4]
  glycan array binding signal (z-score): -0.32
Gal3S(b1-3)GlcNAc
  glycan array binding signal (z-score): -0.055
[5]
  glycan array binding signal (z-score): 0.015
[6]
  glycan array binding signal (z-score): -0.32
Gal3S(b1-4)Glc
  glycan array binding signal (z-score): 0.053
Gal3S(b1-4)Glc6S
  glycan array binding signal (z-score): 0.097
Gal3S(b1-4)GlcNAc
  glycan array binding signal (z-score): -0.162
[7]
  glycan array binding signal (z-score): -0.127
Gal3S(b1-4)GlcNAc6S
  glycan array binding signal (z-score): 0.016
[8]
  glycan array binding signal (z-score): -0.432
[9]
  glycan array binding signal (z-score): 0.196
[10]
  glycan array binding signal (z-score): -0.164
[11]
  glycan array binding signal (z-score): 0.099
Gal3S4S(b1-4)GlcNAc
  glycan array binding signal (z-score): -0.351
Gal3S6S(b1-4)GlcNAc
  glycan array binding signal (z-score): -0.149
Gal3S6S(b1-4)GlcNAc6S
  glycan array binding signal (z-score): 1.45
Gal4S(b1-4)GlcNAc
  glycan array binding signal (z-score): -0.21
Gal4S6S(b1-4)GlcNAc
  glycan array binding signal (z-score): -0.117
Gal6P(b1-4)GlcNAc
  glycan array binding signal (z-score): -0.196
Gal6S(b1-3)GlcNAc
  glycan array binding signal (z-score): -0.014
Gal6S(b1-3)GlcNAc6S
  glycan array binding signal (z-score): -0.066
[12]
  glycan array binding signal (z-score): 1.03
Gal6S(b1-4)Glc
  glycan array binding signal (z-score): 0.056
Gal6S(b1-4)Glc6S
  glycan array binding signal (z-score): 0.125
Gal6S(b1-4)GlcNAc
  glycan array binding signal (z-score): 0.281
Gal6S(b1-4)GlcNAc6S
  glycan array binding signal (z-score): 0.161
GalNAc(a1-3)Gal
  glycan array binding signal (z-score): -0.117
GalNAc(a1-3)Gal(b1-4)Glc
  glycan array binding signal (z-score): -0.32
GalNAc(a1-3)GalNAc
  glycan array binding signal (z-score): -0.157
[13]
  glycan array binding signal (z-score): -0.892
[14]
  glycan array binding signal (z-score): -0.196
[15]
  glycan array binding signal (z-score): -0.128
GalNAc(b1-3)Gal
  glycan array binding signal (z-score): 0.192
[16]
  glycan array binding signal (z-score): -0.205
[17]
  glycan array binding signal (z-score): -0.273
[18]
  glycan array binding signal (z-score): -0.253
GalNAc(b1-3)GalNAc
  glycan array binding signal (z-score): -0.568
GalNAc(b1-3)GlcNAc
  glycan array binding signal (z-score): -0.198
